The densities may have been worked out from excess volumes.
Test: xn = mol fraction of the nth substance listed
Settings: 101 kPa

CC[n+]1ccn(C)c1.O=S(=O)([N-]S(=O)(=O)C(F)(F)F)C(F)(F)F + O=S(=O)([N-]S(=O)(=O)C(F)(F)F)C(F)(F)F.[Li+]
x1 = 1
Settings	mass density [kg/m3]
298.15 K	1516
328.15 K	1488
358.15 K	1460

O=S(=O)([N-]S(=O)(=O)C(F)(F)F)C(F)(F)F.[Li+] + CC[n+]1ccn(C)c1.O=S(=O)([N-]S(=O)(=O)C(F)(F)F)C(F)(F)F
mass density [kg/m3]
Settings	298.15 K	313.15 K	328.15 K	343.15 K	358.15 K
x2 = 0.6	1643	1626	1615	1602	1587
x2 = 0.7	1607	1590	1580	1567	1552
x2 = 0.8	–	1558	1548	1535	–
x2 = 0.9	1542	1526	1516	1504	1490
x2 = 0.95	1530	1514	1504	1492	1478

Reference: a compilation of properties of binary mixtures (doi:10.1016/j.jct.2017.08.033)
